# The list shows a part of the results.
# System: PfAP2-HC AP2 domain (GST-tagged)
# Assay: gcPBM binding intensity (ln(normalized median fluorescence intensity)); higher = stronger DNA binding
# How it was run: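 The highest Masliner-normalised natural-log median intensity across replicate spots of either probe orientation is reported as binding intensity. GST-tagged P. falciparum DNA-binding domains expressed in E. coli were applied for 1 h to an Agilent 4 × 180k array of primer-extended double-stranded 36-bp intergenic genomic probes plus negative controls, and bound protein was detected with Alexa488 anti-GST antibody and scanned at 488 nm.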
row,Sequence,gcPBM binding intensity (ln)
1,TTTAAAATTTCTTAATGTACGTAATAAAAAAAAAAA [XGTACX_site4037],9.36
2,TATGTATAACTCAATGCATGCGAAGGACTATTATTT [TGCATGCA_site222],9.59
3,AATATTGTTCACAAGGTGCTTTTTATTCATACTAAT,9.8
4,GTAATTTTTTTCTATACACACATATCTATAATATAT [CACACA_site7284],9.98
5,TACTTATAATTTCAATGTACATATATATAATATCAT [XGTACX_site2424],9.65
6,AATTAAATATTATAAACACACATATAGATTATTTTT [CACACA_site6538],9.73
7,ATTTTAAATATGGAATGTACTTAAAAAAAATTTCAT [XGTACX_site5058],9.41
8,ATTTCTTATTAAATTACACACAAAGTAAATAAATCT [CACACA_site3924],9.54
9,TTTTCCTTTTTTTTTACATGCAGATATAGAAAGGTA [TGCATGCA_site106],9.3
10,TTGTTTTGGATTATCACACATATAATATATACTCAT [CACACA_site4780],9.91
11,AAATACATAACTTAAAATTTGTTCATATCTATACAT [TGCATGCA_negctrl_site249],9.65
12,TATAATAATATGGATTGTACATATATATTTAATTAA [XGTACX_site4327],9.56
13,TCTTTTTTGAACTAGCGTACATGAAAATATTTATAG [XGTACX_site7359],9.47
14,TTATTACATATAAAGGAAAATAGCATCTAGATTAAA [XGTACX_negctrl_site435],9.44
15,TTTTTATTTATATATAAGGAAAATGCGGTATATATT [CACACA_negctrl_site1770],9.44
16,AAAAAAAAAAAAAAAAAATACATATACATTTGTGCA [CACACA_negctrl_site1431],9.43
17,AACACCCATGGACACACACACATATATATATATATA [CACACA_site5809],10.4
18,TTTTTATAAGCATAAAGTACAAATATTTTTTAGTTG [XGTACX_site4140],9.33
19,TAAATCCGTTTGATGGGTACATACATACATACATAT [XGTACX_site8889],9.73

row,Sequence,gcPBM binding intensity (ln)
1,ACAATAAAATATGGCACACATATATATATATATTTA [CACACA_site3],9.78
2,ATTTATTTTAGTAAAGCACACGTGTAAAATATATCT [CACACA_site4820],9.8
3,ACACAAAACAAAAAGGTGCTGTATAAATGGGTGTAT [GTGCAC_site9905],10.5
4,CATATATAAAAAAACACACACATATTTATATTTATA [CACACA_site6682],10.3
5,CATATTTCTTACATTTGTACTTAATAAAATTAATCA [XGTACX_site7224],9.72
6,AAAAAAATTTATAAATATTTTATTAATATATTTACC [GTGCAC_negctrl_site690],9.35
7,ACAAAATAAATATGAACACACACATTTATGCCTTTA [CACACA_site8346],10.2
8,ATAATTATACATATTACACACTCTCTTGATCTTTTT [CACACA_site3853],9.87
9,TTTTTATACAACTTATAATACATCTGAAAATATAAA [XGTACX_negctrl_site36],9.32
10,TTGTCTGACTAATTTTTTTCTGTTTGTACGTTCTTA [GTGCAC_negctrl_site602],9.76
11,TATCACATATTATGATGTACAAGGTTTCTGACTAAT [XGTACX_site2763],9.47
12,CAACATTCGTATATCACACATTTGCATGTTGTCAAT [CACACA_site4470],9.78
13,GATTTAGTTATTTAAACATGCAATTTATATAGAATT [TGCATGCA_site47],9.45
14,TATTTATACATACATACACACATATAGATTTATATT [CACACA_site7851],9.91
15,TTATTTTTTATTATGTGTACATAACATCGCGATACA [XGTACX_site4359],9.67
16,AAAACTTGTCAGAATGGACACACGAATTAAAGGCCT [CACACA_site1215],9.7
17,TTTTTAATTTATTGTGTGCACACAACTATGAGTTTT,10.4
18,ATATGATATATATTCGGTACACATATATATAAAGAG [XGTACX_site430],9.89
19,ATTTAAATAATATTCACACACAAAATTATATTTTAA [CACACA_site219],9.94

row,Sequence,gcPBM binding intensity (ln)
1,AAGTTTTCTTAAAATTGTACTTTTCAAAAATAATCT [XGTACX_site277],9.34
2,TATGTCAAATATATATGTACACAAATATACTATTAA [XGTACX_site2643],9.54
3,AATATATATATTAGAGTGCACATAATTATTTGCTAA,9.71
4,ATAAAATATATATTAGTGCACTAAAGGAAAAAAAAT,9.99
5,ATAATCACAAATAATTGTACATTTTGTTATATATAT [XGTACX_site7704],9.63
6,TGATATATATATATATATATAACACACGCAAAAAAA [TGCATGCA_negctrl_site240],9.98
7,AAAAATTTCATATTCACACACAAAAAAAAAAAATAT [CACACA_site1592],9.96
8,TATAAAAGGTAAGAGTGTACAAGTAAAAAATTTTTA [XGTACX_site771],9.77
9,AATAAAAATTGGTAGGCACACATGGAACTATTAAAA [CACACA_site1257],10.1
10,ATGAACTATATTAAATCACACATTATCATTTTATAT [CACACA_site4989],9.81
11,TATTTTTTTTTTTAATGTACAAACAAATTATGTTGG [XGTACX_site2873],9.31
12,ATTTTTTTTATGAGGTGTACTCATATAATAACTACA [XGTACX_site5074],9.6
13,TTTTCTAAAGTAAGTTAAGATATGCAAAAAAAAGAA [GTGCAC_negctrl_site242],9.62
14,ATATATATATATATATGTACACATTAATGTTTTTTT [XGTACX_site167],9.78
15,TATCCCTTAGAATACACACCCATATGAGCGTGAACT [CACACA_site2951],9.55
16,TCGTATATGGATTTTGCACACAATTATAATTTAAAT [CACACA_site868],9.95
17,TATATATTTTAAAATAGTACATATTATATAACCCAT [XGTACX_site2194],9.71
18,TAAAAAATAAAAAAAGCACACACATATATATATATA [CACACA_site8567],9.97
19,AAAATAAGAAATTGAAAAATTGAAAACAAAATTAAA [CACACA_negctrl_site1285],9.62
